The values that follow come from PubChem BioAssay AID463173 (ICCB-Longwood Screening Facility, Harvard Medical School, 2010).

The structures appear in SMILES notation. The whole screen tested about 52,000 compounds, of which about 1,700 (3.3%) were called active. No stated cut-off is given here; in the data, active means survival mostly below about 52% (no sharp cut-off); inactive means mostly above about 56%. The list shows a part of the results.

For this test, the system named is Wild type. Briefly: growth inhibition of S. aureus wild type versus tarO mutant, primary screen, teichoic acid synthesis inhibitors, RN4220, OD600 (AID 463173). The following applies: S. aureus RN4220 wild type/DeltatarO growth, OD600, 18 h, hits give low values, screened at 18.75 µg/mL (by protocol).
For `CCCn1c2ccccc2c2cnn(CC(=O)N(C)c3ccccc3CC)c(=O)c21`, the survival was inactive: 72%.
In the case of `CC(=O)NCC(c1ccc2c(c1)OCO2)N1CCN(c2ccccc2)CC1` (stereo unspecified), the survival was inactive: 69%.
As for `CC(=O)Nc1ccc(-c2nc3cc(Cl)ccc3o2)cc1`, the survival is inactive: 94%.
On to `CCc1cccc(C)c1NC(=O)c1cc(S(=O)(=O)NCc2ccccc2Cl)ccc1F`, for which the survival was inactive: 113%.
In the case of `CCCSCCCNC(=O)C1CCCN(c2nn3cc(-c4ccc(OC)cc4)nc3s2)C1` (stereo unspecified), the survival was inactive: 72%.
On to `Cn1c(=O)c(=O)n(C)c2cc(NC(=O)c3cccc(F)c3)c(Cl)cc21`, for which the survival was inactive: 71%.
The value for `CN(C)CCCN(C(=O)c1ccc(Br)s1)c1nc2ccc(F)cc2s1` was active: -6%; that for `Cc1ccc2cccc(NC(=O)COc3cc(C)c(Cl)c(C)c3)c2n1` was inactive: 82%; that for `COc1ccc(N(CC(=O)NCc2ccccc2Cl)S(=O)(=O)c2c(C)nn(C)c2C)cc1` was inactive: 76%.
The value for `COc1ccc(CCNC(=O)Cn2c(=O)nc(-c3ccccc3)c3ccccc32)cc1OC` was inactive: 126%.
The result for `CCOc1ccccc1CNC(=O)CCCn1ncn2c(cc3occc32)c1=O` reads inactive: 71%; that for `CCOc1ccc(C(=O)c2cn(CC(=O)Nc3ccc(F)cc3)c3cc4c(cc3c2=O)OCO4)cc1`, inactive: 140%; that for `Cc1nn(CC(=O)Nc2ccccc2C(F)(F)F)c(=O)c2cccn12`, inactive: 89%.
For `Cc1ccc(CCNC(=O)CCn2nc(-c3ccccc3)ccc2=O)cc1`, the survival is inactive: 89%.
The result for `CCCCN(CC)CCNC(=O)CN1C(=O)COc2ccc(S(=O)(=O)N3CCCC3)cc21` reads inactive: 82%; that for `CCOc1ccc(C(=O)Nc2c(C(=O)c3ccc(OC)cc3)oc3ccccc23)cc1`, inactive: 64%; that for `COc1ccc(NC(=O)c2ccc3nc(CCc4ccccc4)oc3c2)c(OC)c1`, inactive: 121%.
As to `Cc1ccccc1NC(=O)N1CCc2c(sc3c2CCCC3)C1c1ccccc1` (stereo unspecified), the survival is inactive: 99%.
For the compound `O=C(NCCc1ccccc1)c1ccc(Cn2c(SCc3cccc(F)c3)nc3cccnc32)cc1`, the survival is inactive: 82%.
In the case of `COCCNC(=O)CCc1c(C)nc2c(-c3ccc(F)cc3)c(C)nn2c1C`, the survival is inactive: 85%.
With `COc1cc(C(CC(=O)Nc2ccc(F)cc2F)N2Cc3ccccc3C2=O)cc(OC)c1OC` (stereo unspecified), the survival is inactive: 78%.
As for `COc1ccc(CCNC(=O)CCCCn2c(=O)c3ccccc3n(Cc3ccccc3C)c2=O)cc1OC`, the survival was inactive: 135%.
On to `CCS(=O)(=O)c1ncc(N(Cc2ccccc2)Cc2ccco2)c(C(=O)Nc2ccc(C)c(C)c2)n1`, for which the survival was inactive: 85%.
Turning to `CCOc1ccc(NC(=O)c2ccc3c(=O)n4nc(Nc5ccccc5C)sc4nc3c2)cc1`, the survival is inactive: 132%.
Consider `CCc1ccccc1NC(=O)Cn1c(=O)n(-c2ccc(C)cc2)c(=O)c2c1c1cc(C)ccc1n2C`, for which the survival is inactive: 97%.
The value for `COc1ccc(OC)c(NC(=O)c2cc3cc(C)ccc3n2C)c1` was inactive: 75%; that for `O=C(Cn1c(=O)oc2cc(Cl)ccc21)Nc1cccc(C(F)(F)F)c1` was inactive: 85%; that for `Cc1nc2ncnn2c(C)c1CCC(=O)N1CCN(c2ccccc2)CC1` was inactive: 76%.
The value for `CCC(=O)Nc1ccc(CC)cc1-c1nc2ccccc2n(CC(=O)Nc2cccc(Cl)c2)c1=O` was inactive: 64%; that for `COc1cccc(C(=O)N2CCN(C3CCC(c4ccccc4)CC3)CC2)c1OC` (stereo unspecified) was inactive: 108%; that for `CCCCCn1cc2c(c1-c1ccc(Br)cc1)c(=O)n(C)c(=O)n2C` was inactive: 89%.
The value for `Cc1ccc(-c2cc(C(F)F)n3ncc(C(=O)Nc4cn(C)nc4C)c3n2)cc1` was inactive: 112%; that for `Cc1ccccc1CSc1nc2cc(C(=O)NC3CCCC3)ccc2c(=O)n1Cc1ccccc1` was inactive: 94%; that for `Cc1cc2c(cc1C)NC(CC(=O)Nc1ccccc1)C(=O)N2` (stereo unspecified) was inactive: 83%.
On to `Cc1ccc(O)c(NC(=O)c2ccc(Br)c(S(=O)(=O)N3CCCCC3)c2)c1`, for which the survival was inactive: 69%.
Consider `CCN(Cc1ccccc1)C(=O)Cn1cc(S(=O)(=O)Cc2cccc(Cl)c2)c2ccccc21`, for which the survival was inactive: 75%.
Regarding `O=C(CCCn1c(=O)c2cccn2c2ccc(F)cc21)NCc1ccc(Cl)cc1`, the survival is inactive: 57%.
Regarding `CCc1ccc(NC(=O)C(=O)NCC(c2cccnc2)N2CCN(Cc3ccccc3)CC2)cc1` (stereo unspecified), the survival is inactive: 87%.
The value for `COC(=O)CC1Oc2ccccc2-n2cc(-c3ccccc3)nc21` (stereo unspecified) was inactive: 74%; that for `CC1CCN(C(=O)CSc2c(C(C)C)cnc3c2c(=O)n(C)c(=O)n3C)CC1` was inactive: 120%; that for `Cc1ccc(-n2nc(CO)c(C(=O)NC(C)CCCc3ccccc3)n2)cc1C` (stereo unspecified) was inactive: 112%.
The result for `CCOc1ccc(CNS(=O)(=O)c2ccc3[nH]c(=O)ccc3c2)cc1` reads inactive: 80%; that for `CCCCOc1ccc(CNC(=O)c2ccc(NC(=O)N3CCCCc4ccccc43)cc2)cc1`, inactive: 65%.
The result for `CC(=O)Nc1nonc1-c1nnc(SCC(=O)Nc2ccccc2)n1-c1ccccc1` reads inactive: 51%; that for `CCC(=O)Nc1ccc2nc(SCCOc3ccccc3)sc2c1`, inactive: 97%.
Regarding `CCOc1ccccc1NC(=O)CCc1c(C)nn(-c2ccc(N3CCOCC3)nn2)c1C`, the survival is inactive: 74%.
The value for `Cc1ccc(NC(=O)CSc2ncn[nH]2)cc1C` was inactive: 73%.
In the case of `Cc1c(Cl)cccc1NC(=O)c1noc2c1CCCC2`, the survival is inactive: 74%.
The value for `COC(=O)c1ccc(-n2c(CCC(=O)O)ccc2-c2ccc(C)cc2)cc1` was inactive: 72%.
`CCOC(=O)Cn1c(=O)n(CC2CCCO2)c2nc(-c3cccc(C)c3)nc(C(N)=O)c21` (stereo unspecified): the survival was inactive: 55%.
The result for `CC1(C)CC(=O)C2=C(C1)OC(N)=C(C#N)C2C#Cc1ccccc1` (stereo unspecified) reads inactive: 101%; that for `CCC(=O)N1c2ccccc2CC1C(=O)NCCN1CCN(c2cccc(C(F)(F)F)c2)CC1` (stereo unspecified), inactive: 119%; that for `Cc1ccc(C)c(N2CCN(Cc3nnc(-c4ccc5c(c4)OCO5)o3)CC2)c1`, inactive: 68%.
The result for `Cn1c(=O)oc2cc(S(=O)(=O)NC(Cc3ccccc3)C(=O)NCc3ccc(F)cc3)ccc21` (stereo unspecified) reads inactive: 91%.
The value for `COc1ccccc1OC(C)C(=O)Nc1c(C(=O)c2ccc(Cl)cc2)oc2ccccc12` (stereo unspecified) was inactive: 87%; that for `CCn1c(C)c(C)c2cc(C(=O)NCCCN3CCCCC3)ccc21` was inactive: 138%.
